First the molecules themselves.
B1: chr1:248623556:248626177:-|three_prime_utr|ENSG00000279301|control|control|control (ssRNA)
RNA: GGGAGUUCUACAGUCCGACGAUCUGCAGAGAUCUUUCAGUGAAGUAUCAAAAAUGGUUUAUUAUGAAGUUAAAUAAUUUAUCUAGUCUUUUUAUUUAGGGAAGAAAAACCCCAAAUAUUAGAGUUCACAGCAACCUUUCACUCCAACAGAGGAUUGAGCAUCA
B2: chrX:106032434:106033499:-|three_prime_utr|ENSG00000123561|control|control|control (ssRNA)
RNA: GGGAGUUCUACAGUCCGACGAUCGGAAAAAGGCCAUUGGCUAAUUGCACGUGUGUAUUGCAAUGGGAAAUAAAUAAAUAAUAUAGCCUGGUGUGAUUGAUGUGAGCUUGGACUUGCAUUCCCUUAUGAUGGGAUGAAGAUUGACAACAGAGGAUUGAGCAUCA
B3: chr8:73046310:73046411:+|3pUTR|ENSG00000147601|msi1|total|mutant (ssRNA)
RNA: GGGAGUUCUACAGUCCGACGAUCUUGUAUUCUUUAAGAACCUUAUUUUGAUAAAAUGUAAAUUUGUUGAACCCUGCCACAUUCCGUAUCCCCACCCCCAAAUCCUGUUCCAAUGAAAAAAUUAAAACCUGAUACGAAAAAAAACAACAGAGGAUUGAGCAUCA
B4: chr5:91374913:91375023:-|CDS|ENSG00000113369|unk|total|mutant (ssRNA)
RNA: GGGAGUUCUACAGUCCGACGAUCGAGACGUGGAAUGGCAAGUUGCUGAAAAUUCCACCAGUUUCUCCCUCUAUCCUCGACUGCCGUAUAAUCCGCGUGGAAUAUUCACUAAUGGUAUGUACACAUUUAAGAGGUUUUUUCCUUCAACAGAGGAUUGAGCAUCA
B5: chr1:205715917:205716022:-|3pUTR|ENSG00000069275|msi1_unk|FALSE|overlapping (ssRNA)
RNA: GGGAGUUCUACAGUCCGACGAUCGAGACAGGCUCUGAAUAACCUUUGUUUUCUCCACUUUUUAUUGAUGAUUUAAAACACUCUAGUCUUCCCCUCAAAUCAUGCAUGCAAAUAGGAGGACAGUGGUGGUGACUCAACUGGAUACAACAGAGGAUUGAGCAUCA
B6: chr1:202892395:202892497:-|3pUTR|ENSG00000117153|unk|FALSE|unique (ssRNA)
RNA: GGGAGUUCUACAGUCCGACGAUCGCGAGAAGUGACCAUUGUUGGAGCACCAUCCAGAGCUAGUGACCAGUCCAGUGGACAGUUAGUGGGAGAAUCAAAAAUCCUUUCCAGAAUGUCUGUUUCUCACUAUGUGCACCGGGUGAUCAACAGAGGAUUGAGCAUCA
B7: chr1:51271806:51271833:+|3pUTR|ENSG00000123091|msi1_unk|total|mutant (ssRNA)
RNA: GGGAGUUCUACAGUCCGACGAUCCAUUUGGGUCAAGGUUUUAUUAAAAGCUACAUUUUAUAACACUGGCACACACAAAAAAGCCGUUUUAAGCUUGUUUGCACAGUUCUUUUUUUCCAUUGGAAAUGGAAUUCAUUGCCUCCGCAACAGAGGAUUGAGCAUCA
B8: chr4:81602736:81602922:-|CDS|ENSG00000138670|control|control|control (ssRNA)
RNA: GGGAGUUCUACAGUCCGACGAUCUUCCAUGUACAGCAGCAUAACUCCAGUUUGCUUUCCAAGCCCUCUGAUUGAGAAGCCAAUAGGCAAAGUAAGAAUGAACCUACUUUUAUCAGACACUAUGAUUCGAGCCAGUUGGCUGUUCAACAGAGGAUUGAGCAUCA
B9: chr17:30248266:30248367:-|3pUTR|ENSG00000108578|msi1|FALSE|unique (ssRNA)
RNA: GGGAGUUCUACAGUCCGACGAUCUUGGGUGAGAACAACCAAAAUCUUAUCAUGGUCUCAGUCAUAAUCAUUAGGGGGAACUCUAGCCAAAUGGUUUAACUUCUGCCUGUGGAACUGGGGAUUGGGUGGGCAGGAAAAGGUGAUCAACAGAGGAUUGAGCAUCA
B10: chr7:157269180:157269282:+|3pUTR|ENSG00000009335|unk|total|mutant (ssRNA)
RNA: GGGAGUUCUACAGUCCGACGAUCAUUUCCGGUUGUUUUAUGUUGAAUGUUCUAUAUCUUAUCCGUUAAUUUGUAUAUUUUAUCCGUAUUUUGGAAACCGCAUAUCUGAGACUGAAGAGAAAUUGACAAUUCACUUAUUUGUGGCAACAGAGGAUUGAGCAUCA
B11: chrX:129805617:129805718:-|3pUTR|ENSG00000188706|msi1|FALSE|unique (ssRNA)
RNA: GGGAGUUCUACAGUCCGACGAUCUCUUUUCCCAUUAGAUAUAUGUAAGUAGUUGUAGUAGAGAUAAUAAUUGACAUUUCUCGUAGACUACCCAGAAACUUUUUUAAUACCUGUGCCAUUCUCAAUAAGAAUUUAUGAGAUGCCCAACAGAGGAUUGAGCAUCA
B12: chr12:95077336:95077437:-|3pUTR|ENSG00000180263|msi1|FALSE|unique (ssRNA)
RNA: GGGAGUUCUACAGUCCGACGAUCUCCUCAUUGACCCAUCCGCAUCUCUGUUUAUCCAAGACUUCUCUGUGAUAGCUGACCCUUAGUCUUUCUCUCCCCUAUUCCUCCAGACUAGAUCCUGUCUCCUUCCUGCAGCCCCGACACCAACAGAGGAUUGAGCAUCA
B13: ENSG00000070961:be:win_2701|CDS|ENSG00000070961|bound_else_gene|NA|bound_elsewhere_windowed (ssRNA)
RNA: GGGAGUUCUACAGUCCGACGAUCGCUCUGGCAACGGAACCACCCACUGAGUCUCUCUUGCUUCGGAAACCUUAUGGUAGAAAUAAGCCUCUCAUCUCACGUACAAUGAUGAAGAAUAUUUUGGGUCAUGCAUUCUAUCAACUUCAACAGAGGAUUGAGCAUCA
B14: chr12:57626096:57626197:-|3pUTR|ENSG00000135454|msi1|FALSE|unique (ssRNA)
RNA: GGGAGUUCUACAGUCCGACGAUCGUGUCUCUGCAAUGCUGUGGGCACAAAAGAAGGGGCACCAGAGUCCCUGUGCAAACACCUAGACUCACUUCAUGGAUUCCAAAGCUCUCAGCUUCAUUUUAUUAGUUACGUUAGGUAAGGCAACAGAGGAUUGAGCAUCA
B15: chr18:54155150:54155251:-|3pUTR|ENSG00000134046|unk|FALSE|unique (ssRNA)
RNA: GGGAGUUCUACAGUCCGACGAUCUUUCCACUGGCUUUUGCCUGUAAGAAAAAAAAUGUACCCGAGCACAUAGAGCUUUUUAAUAGCACUAACCAAUGCCUUUUUAGAUGUAUUUUUGAUGUAUAUAUCUAUUAUUCAAAAAAUCAACAGAGGAUUGAGCAUCA
B16: ENSG00000107863:be:win_4901|CDS|ENSG00000107863|bound_else_gene|NA|bound_elsewhere_windowed (ssRNA)
RNA: GGGAGUUCUACAGUCCGACGAUCAAACCGACAGCGAGAGCGAGUUUCCCGUGUUCCCCACAGCCUUGACUUCAGAGAGGCUUUUCCGAGGAAAACUGCAAGAAGUGACUAAGAGCAGCCGGAGAAAUUCUGAAGGAAGUGAAUCAACAGAGGAUUGAGCAUCA
B17: ENSG00000198589:be:win_6001|CDS|ENSG00000198589|bound_else_gene|NA|bound_elsewhere_windowed (ssRNA)
RNA: GGGAGUUCUACAGUCCGACGAUCGGAUCGACACAUCCUGAAGCGACACUAAAAACAGCCGUGGAACAUGCCACAGAUGAAGAUAUCCUUGCUAAAGGAAAACAGUCCAUCAGGAGUCAGGCUUUAGGAAAUCAGAACUCAGAACAACAGAGGAUUGAGCAUCA
B18: chr3:44491765:44499181:-|three_prime_utr|ENSG00000178917|control|control|control (ssRNA)
RNA: GGGAGUUCUACAGUCCGACGAUCACUAAUCACAGUGGAGACCAUACCUACUUGCUUUUCCUUGGGUCACUAAGGUGGGAGAGUAGGUGCAACUUAGUCUGAUCCUUACUUAGUAGGAAAUUGGGGAUUACAUCUGUCAUUAACCAACAGAGGAUUGAGCAUCA
B19: chr2:171482635:171482736:+|3pUTR|ENSG00000115827|unk|total|mutant (ssRNA)
RNA: GGGAGUUCUACAGUCCGACGAUCCAAGAGUGUUUCAGAACCGGAUGUCUUAAGACUUCAGUCAUGUCAGAGAUUUUUUUUUUCCGGUGAUUAUUGAGUUUCUCCUUCUCCUUUAAGUCAUCACCUUCCUUUUAUGAAAUGAUACAACAGAGGAUUGAGCAUCA
B20: chr14:71589133:71589262:+|CDS|ENSG00000197555|unk|total|mutant (ssRNA)
RNA: GGGAGUUCUACAGUCCGACGAUCGAGACCGGUGGAGAAGGGGAGAGGAAAAUCAGCCUUUCAAAAUCAAAUUCUGGCUCCUUCCGUGGAUGUGAAAGUGCCUCCUUUGAGUCUACCCUCCGUUCCCAUUGCACAAAUGCAGGACAACAGAGGAUUGAGCAUCA
B21: ENSG00000107863:be:win_2101|CDS|ENSG00000107863|bound_else_gene|NA|bound_elsewhere_windowed (ssRNA)
RNA: GGGAGUUCUACAGUCCGACGAUCGGUACUUCAGAUUUAGAACUACCUGUCAGUCAAAGGAAUCAAGAUUUAAGUUUACAAGAGGCUGAAACUGAGCAAUCAGAUACUUUAGAUAAUAAAGAAGCUGUCAUCCUAAGGGAAAAACAACAGAGGAUUGAGCAUCA
B22: ENSG00000136451:be:win_2651|3pUTR|ENSG00000136451|bound_else_gene|NA|bound_elsewhere_windowed (ssRNA)
RNA: GGGAGUUCUACAGUCCGACGAUCUUUAAAUUUCUCCUUCCGUUUCUUAAGUAUUGCGCAGAUUUGUUCAACUUUGUAAAUAUGGACAUCACUUUUUUUUUCUUUGAGAAAACACUUGUAUCAGCUUUGUGGUGUUUUCAGGGACAACAGAGGAUUGAGCAUCA

The other results are listed elsewhere or left out.

For the assay, the target named is MSI1 full-length (mouse, UniProt Q61474 1-362). In words: nsRBNS (natural sequence RNA bind-n-seq); RBNS binding buffer (assumed for nsRBNS): 25 mM Tris pH 7.5, 150 mM KCl, 3 mM MgCl2, 0.01% Triton X-100, 500 ug/ml BSA, 20 U/ml SUPERase-In, 4 C; UNK is unkempt and MSI1 is Musashi-1; names of the RNAs are library labels; protein concentration not given here; high values mean tight binding.
UniProt Q61474, sequence (Q61474 whole entry): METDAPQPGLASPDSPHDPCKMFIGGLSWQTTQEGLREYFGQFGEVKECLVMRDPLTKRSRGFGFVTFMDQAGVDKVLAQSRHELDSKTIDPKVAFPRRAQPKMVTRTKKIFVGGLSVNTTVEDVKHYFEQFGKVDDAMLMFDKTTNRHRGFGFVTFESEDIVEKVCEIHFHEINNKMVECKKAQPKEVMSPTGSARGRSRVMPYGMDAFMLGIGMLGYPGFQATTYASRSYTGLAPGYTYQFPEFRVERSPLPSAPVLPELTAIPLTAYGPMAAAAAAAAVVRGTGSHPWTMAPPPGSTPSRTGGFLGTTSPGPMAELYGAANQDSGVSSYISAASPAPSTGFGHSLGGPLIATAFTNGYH
As for B1, the binding signal was 1.73 enrichment R.

Consider B2, for which the binding signal stood at 0.443 enrichment R. To B3 belongs 2.83 enrichment R. The figure for B4 is 0.305 enrichment R; for B5 it is 0.61 enrichment R. For B6, the binding signal came out at 0.328 enrichment R. The figure for B7 is 0.297 enrichment R. The figure for B8 is 0.352 enrichment R.

Turning to B9, the binding signal is 0.573 enrichment R. The figure for B10 is 1.39 enrichment R; for B11 it is 71.9 enrichment R; for B12 it is 1.24 enrichment R. The figure for B13 is 0.578 enrichment R; for B14 it is 13.5 enrichment R. The figure for B15 is 0.813 enrichment R; for B16 it is 0.382 enrichment R. B17 showed a binding signal of 0.325 enrichment R. To B18 belongs 0.646 enrichment R. The figure for B19 is 0.495 enrichment R; for B20 it is 0.392 enrichment R.

As to B21, the binding signal came to 1.29 enrichment R. To B22 belongs 0.782 enrichment R.

These data come from publication PMC12136788.
